From article PMC4242493
This is one part of the list. The list includes weakly bound sequences.

Each sequence was assayed against MaxL homodimer (UniProt P61244) (assay: universal protein-binding microarray (PBM)). Conditions: PBS-based mixture, 10 nM His-tagged protein dimer, 2% milk, 200 ng/uL BSA, 50 ng/uL salmon testes DNA, 0.02% TX-100; detection with Alexa 488 anti-His …; high values mean tight binding; most listed sequences are background and not binding sites; double strand, one strand shown.
Chain of UniProt P61244 (P61244 whole entry): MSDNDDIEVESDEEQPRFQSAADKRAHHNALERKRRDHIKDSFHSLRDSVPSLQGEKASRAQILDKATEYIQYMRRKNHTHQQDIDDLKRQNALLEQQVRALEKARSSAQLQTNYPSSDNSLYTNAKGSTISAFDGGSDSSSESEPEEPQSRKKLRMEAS

Sequence	binding signal (normalized occupancy)
CGAGCCAA	0.0691
GATTCTTA	0.0756
CGAGTCAC	0.076
GAAAATCA	0.0778
ACACGTTG	0.128
CTAAAAAC	0.0747
CGTTAGTC	0.0712
CATCTAAA	0.078
GTGCCACA	0.0818
TAATGTAA	0.0864
GACGGTAA	0.0742
CGTTACGC	0.0704
GTTCAAAC	0.0726
ATAAGGCA	0.0783
AGTAGACG	0.0773
GCGAAGGA	0.069
CCTTTGAG	0.0735
CGCATAAG	0.0761
CACATCAC	0.0848
GCATGTTA	0.0976
AGCGTTAT	0.0808
GCCGTATA	0.0769
CCACATGA	0.134
TTGTACAA	0.0755
CGGTACAC	0.0815

Sequence	binding signal (normalized occupancy)
GCGTAGCA	0.0754
TGCCTCAA	0.0739
AATTAAAA	0.0682
ATTATGGG	0.0828
CACGCACC	0.0913
ATTTGCTA	0.0767
ACAGCCGG	0.0693
CAATAAAA	0.0779
ACTGCCAT	0.0804
ATATCGCG	0.0757
GGCCAGCC	0.0687
ACTGGCGC	0.07
CTTAGCTA	0.0685
TGAGGGCA	0.0748
CGTGTCAA	0.0866
AGCTGATC	0.0718
CGTTTGTC	0.0781
AGCTCTAC	0.074
ACAATTTC	0.0747
TGCCTACA	0.0783
GATGTGGA	0.0847
CCGTCTCA	0.0725
ACGTAAGC	0.0775
AGGGGCAG	0.0704
GGCGGAAC	0.0701

Sequence	binding signal (normalized occupancy)
CCGGATAC	0.0761
ACCGCCGC	0.0717
AACCCACC	0.0807
CCCAGACA	0.0761
ATTTGATA	0.0826
AGGTAATA	0.076
CCCGACGG	0.0682
GATTGACA	0.0783
TACGATAA	0.08
AAGCAAAC	0.074
GTTCGGGA	0.071
ACTCTGCA	0.0713
AGGATGCG	0.0771
AAACACCA	0.0788
CGGTCTCC	0.0734
ACGTTTGA	0.0872
CGGGCTGA	0.0683
GTCTTCAC	0.0747
TAATCAAA	0.0738
CCGATGAC	0.0747
GGCGGACA	0.0743
CATTAGTC	0.075
CCTGAGAA	0.076
GCTTATAC	0.0806
GCATCGGC	0.072

Sequence	binding signal (normalized occupancy)
CGGAGTAG	0.0682
ACCTTTTC	0.0755
GTCATTCA	0.0795
ATGATGAG	0.0884
ACTTAGGC	0.0776
ACCTGTTC	0.079
ACGGACGA	0.0716
CAGAGGCC	0.0686
ATCGCAGC	0.069
GTGGGGAA	0.0843
ACGCACGA	0.091
AGCTATAT	0.0735
GTCTTCGA	0.0675
GACGATCC	0.077
TCCAGTCA	0.0749
TGACGGCA	0.0756
TCGTCAGA	0.0695
GATTACAC	0.0851
GCATAAGA	0.0799
GCGCGGGA	0.0774
ACGCTGCA	0.0799
AACCTTAA	0.073
ACGAGAGG	0.0776
TCATCCAA	0.0765
AGTCTGGA	0.0718

Sequence	binding signal (normalized occupancy)
CGCAACTA	0.0738
CATCCTAA	0.0751
ATCAACGG	0.0738
CACCCCGA	0.0805
GGTGATTA	0.0785
AATAAGGA	0.0732
GCATCAGA	0.0785
GCCAAGGA	0.0765
ACACGCCC	0.0863
AAGGTGAC	0.0729
CGTACCGA	0.0728
ATCTCCCG	0.0753
TAGGGGAA	0.0817
GAGACGGA	0.07
AGCTCGGG	0.0612
CCAAACTC	0.0694
TCTTCTAA	0.0702
CCACTGGG	0.0736
TAATGTGA	0.0848
ACGGGATA	0.0871
AAACCGGG	0.0705
AAACGACC	0.0727
GGAGGAAC	0.0791
CAACCGCA	0.0728
CATGAAGC	0.0755

Sequence	binding signal (normalized occupancy)
TAGAGAGA	0.071
CATCTTCC	0.0775
CATAACTC	0.0771
CGACTGGA	0.0706
CCGAGAAA	0.071
ATCGTCCA	0.0745
AGTATCTA	0.0824
ATGAGTTC	0.0819
GCTCTTCC	0.0706
CGGAGGGA	0.0665
ATGTCTGC	0.0782
AAATCTAT	0.0777
GTAGGGTA	0.0807
GGAGTTAC	0.075
GTCTATCA	0.0857
CTCCGTCA	0.0718
CCTACTAG	0.0712
AGGTCTCA	0.074
CACGAGAG	0.0911
GGGGCTCA	0.0743
ACCAGCGC	0.0713
AGCTAGAG	0.0694
AGGGCTAT	0.0761
ACGGGCCC	0.0639
ACAACCTA	0.076

Sequence	binding signal (normalized occupancy)
ACGGCGAC	0.0651
GGGAGCGA	0.0724
AGTCTCAA	0.0716
CCTAGAAG	0.0686
GCTATAGA	0.0771
AAAACCCC	0.0798
ACAGTAAT	0.0765
GCGGTAGA	0.0771
ATACCCAT	0.0837
AACGATCC	0.0787
CGGGGGAC	0.0762
GATCGTTA	0.0767
CGTGCGAA	0.0817
TATTCCCA	0.0758
CCGGTGAG	0.0746
CTTCTACC	0.0705
AACAGATA	0.0792
TCGAACAA	0.0689
GAGCAAAC	0.0788
CGGAAGCA	0.0716
CAGCCATG	0.0844
AATATATG	0.0848
GGGCGAAA	0.068
ACGCTAGC	0.0727
AACACCTC	0.0797

Sequence	binding signal (normalized occupancy)
ATCTGCTG	0.0748
CGTTGACA	0.0797
CCCTTAGC	0.0721
AGTCTCCG	0.07
CAATGTGG	0.097
CCGTCATC	0.0727
CGTTCACC	0.0783
TGAAGGCA	0.0752
TGACCAAA	0.0716
CTAAACGA	0.0709
ACCCACAT	0.0932
CGCCAAGC	0.0736
AAGTATAG	0.0813
CCCTAGAC	0.0788
ACTGTTCG	0.0699
CCCTGCCA	0.0784
ACATGGGA	0.0901
GCGGCATA	0.0753
AAGATGCA	0.0771
CAACCGTG	0.079
CTCGTCGA	0.0659
CGTACTCA	0.0817
CGCATTGC	0.08
ACGCGGAG	0.076
AGTTGCGG	0.0665

Sequence	binding signal (normalized occupancy)
AGAGCCTG	0.0676
CCTGTCAG	0.0719
CGTACAGC	0.0733
AGAAGCCA	0.0721
AACGAGAC	0.075
CAAAAGAA	0.0715
GATTGATA	0.0797
CCGACCAA	0.0687
GGGGATCA	0.0794
CCTTAACG	0.0765
CTTTTGGC	0.0694
AATCTTTG	0.0726
TGCGCACA	0.0804
CGGACGAC	0.0716
AGCTGGCC	0.0664
ATGTGGCA	0.087
GCGTGGAC	0.0976
GAACCCTA	0.0781
CAAGCTCG	0.0644
